B1: PhoQ; a variant is named by its letters at X, in order, P23837 (parent)
chain: MKKLLRLFFPLSLRVRFLLATAAVVLVLSLAYGMVALIGYSVSFDKTTFRLLRGESNLFYTLAKWENNKLHVELPENIDKQSPTMTLIYDENGQLLWAQRDVPWLMKMIQPDWLKSNGFHEIEADVNDTSLLLSGDHSIQQQLQEVREDDDDAEMTHSVAVNVYPATSRMPKLTIVVVDTIPVELKSSYMVWSWFIYVLSANLLLVIPLLWVAAWWSLRPIEALAKEVRELEEHNRELLNPATTRELTSLVRNLNRLLKSERERYDKYRTTLTDLTHSLKTPLXXLQXXLRSLRSEKMSVSDAEPVMLEQISRISQQIGYYLHRASMRGGTLLSRELHPVAPLLDNLTSALNKVYQRKGVNISLDISPEISFVGEQNDFVEVMGNVLDNACKYCLEFVEISARQTDEHLYIVVEDDGPGIPLSKREVIFDRGQRVDTLRPGQGVGLAVAREITEQYEGKIVAGESMLGGARMEVIFGRQHSAPKDE

This is one part of the list.

In the test the parent is B1. Kind of test: enrichment ratio after two sorts for PhoP signalling (ratio (wild type AVST 3.29)); higher = more functional. Particulars: with PhoP (E. coli).
As for WFGE, the enrichment ratio was not above 0.25. For MDCT the value was not above 0.25; for SDYQ, not above 0.25. For GFDI the value was not above 0.25; for ADIK, not above 0.25; for NIYP, not above 0.25.

As to YMFS, the enrichment ratio is not above 0.25. To LNDK belongs not above 0.25; to TQLM, 22.7; to FGLL, 12.6. For IKGM the value was not above 0.25; for HVKL, not above 0.25.

For the variant WVKS, the enrichment ratio is not above 0.25. To GAQN belongs not above 0.25.

For YLMV, the enrichment ratio is not above 0.25. To FLEA belongs not above 0.25.

With SPGK, the enrichment ratio was not above 0.25.

Take THTQ: the enrichment ratio is 1.45.

As to ADKC, the enrichment ratio is not above 0.25. For MQGT the value was not above 0.25. For WTRA the value was not above 0.25. To KEAY belongs not above 0.25.

Turning to QLPF, the enrichment ratio is not above 0.25. For LDCL the value was not above 0.25; for PMFY, not above 0.25. To HPCF belongs not above 0.25.

On to RECA, for which the enrichment ratio was not above 0.25. For QAVR, the enrichment ratio was not above 0.25. For MIFS the value was not above 0.25; for LNFW, not above 0.25; for ISNF, not above 0.25. Turning to QQPQ, the enrichment ratio is not above 0.25. To YVMM belongs not above 0.25; to GTGV, not above 0.25; to MCAS, 14. For WYTC the value was not above 0.25. For KPQM the value was not above 0.25. With VKMV, the enrichment ratio is not above 0.25. For KEGQ the value was not above 0.25; for YLQW, not above 0.25; for NTVP, not above 0.25. To QVWT belongs not above 0.25; to THDW, not above 0.25; to QGFM, 5.14. For NKVP, the enrichment ratio is not above 0.25. To APDP belongs not above 0.25. On to HLQM, for which the enrichment ratio is not above 0.25. To WDSD belongs not above 0.25; to AMTS, 13.9; to LNCF, not above 0.25. To YEQD belongs not above 0.25; to DFEV, not above 0.25. In the case of VNRM, the enrichment ratio was not above 0.25.

TTTN: the enrichment ratio was 4.77. To RDAI belongs not above 0.25.

For the variant SAQL, the enrichment ratio turned out to be 9.87.

For LLIW, the enrichment ratio is not above 0.25. To WFKF belongs not above 0.25; to ADMH, not above 0.25. For EEVD the value was not above 0.25. To TASL belongs 15.1. Turning to AQNR, the enrichment ratio was not above 0.25.

On to FRWT, for which the enrichment ratio was not above 0.25.

Regarding STDT, the enrichment ratio was not above 0.25. As for WPTN, the enrichment ratio was not above 0.25. Regarding TRSG, the enrichment ratio was not above 0.25. Turning to WCRV, the enrichment ratio is not above 0.25. For MFDP, the enrichment ratio is not above 0.25. For CLHI the value was not above 0.25.

Turning to QYFQ, the enrichment ratio is not above 0.25. For WGYY the value was not above 0.25.

As to MMFL, the enrichment ratio was not above 0.25.

In the case of KIAW, the enrichment ratio was not above 0.25. For FCEF the value was not above 0.25; for HEQI, not above 0.25; for IDMP, not above 0.25. For VTLY the value was not above 0.25; for FNTV, not above 0.25; for TKIM, 15.1. Consider WGMM, for which the enrichment ratio is not above 0.25. To MTVW belongs not above 0.25; to MLYH, not above 0.25; to SMVN, 6.56. To VPHC belongs not above 0.25; to IGFH, not above 0.25; to AQIE, 5.02.

For the variant LQAQ, the enrichment ratio was not above 0.25. To KCYC belongs not above 0.25; to SARV, not above 0.25.

With MVYP, the enrichment ratio is not above 0.25. For NVVA the value was not above 0.25; for YQDF, not above 0.25; for FNQV, not above 0.25. For DDMW the value was not above 0.25. On to PGEN, for which the enrichment ratio is not above 0.25. For WHND the value was not above 0.25; for PSYH, not above 0.25. For DSRC the value was not above 0.25; for PNYN, not above 0.25; for TCCS, 8.68. To VPWR belongs not above 0.25; to KGCT, not above 0.25; to MLML, 1.11.

As for NCTI, the enrichment ratio is not above 0.25.

As to SFRV, the enrichment ratio is not above 0.25. As for YAKF, the enrichment ratio is not above 0.25. For LYIL the value was not above 0.25. Consider KFQA, for which the enrichment ratio is not above 0.25. For FRIK the value was not above 0.25. To KPCR belongs not above 0.25; to WEPF, not above 0.25; to PKGN, not above 0.25. With FMIC, the enrichment ratio was not above 0.25. For ELYA the value was not above 0.25; for TEQI, 15. To LIYS belongs not above 0.25; to FQHA, not above 0.25. Consider ACMQ, for which the enrichment ratio amounted to 31.7. To KGPA belongs not above 0.25; to YTLL, 9.09.

Consider EQHN, for which the enrichment ratio is not above 0.25.

Turning to KING, the enrichment ratio was not above 0.25. In the case of IEVC, the enrichment ratio was not above 0.25. To KVTD belongs not above 0.25; to SWMP, not above 0.25. To FTWN belongs not above 0.25; to DYPY, not above 0.25. For the variant FGPM, the enrichment ratio was not above 0.25. For EKVH the value was not above 0.25; for QNKM, not above 0.25; for VVWA, not above 0.25. As for YSAA, the enrichment ratio is not above 0.25. To TYAW belongs not above 0.25. To DGTF belongs not above 0.25; to ENLF, not above 0.25. To VFQY belongs not above 0.25. For the variant FAYI, the enrichment ratio was not above 0.25. To GNSC belongs 12.1. To MYFF belongs not above 0.25; to VGNN, not above 0.25; to MICD, not above 0.25. For ADSW the value was not above 0.25; for MHDM, not above 0.25. On to WQVP, for which the enrichment ratio was found to be 0.306. For NRYF the value was not above 0.25. For KEVQ the value was not above 0.25; for ILFC, not above 0.25; for YGMQ, not above 0.25.

Take WEEC: the enrichment ratio was not above 0.25. To NQCR belongs not above 0.25; to AHKE, not above 0.25; to SAHG, not above 0.25.

Turning to LTQP, the enrichment ratio is not above 0.25. For MWAS the value was not above 0.25; for KNHI, not above 0.25; for FSLV, 8.86. In the case of RIMR, the enrichment ratio is not above 0.25. To LHLM belongs not above 0.25; to TAPF, not above 0.25; to SPHN, not above 0.25. To MAQH belongs not above 0.25; to GSYV, not above 0.25.

With KFYH, the enrichment ratio was not above 0.25. To SVAI belongs 10.3; to WPRF, not above 0.25. To LYWE belongs not above 0.25. To TWIA belongs not above 0.25.

On to FRPA, for which the enrichment ratio is not above 0.25. For YENI the value was not above 0.25; for MCSM, 6.97.

Turning to PYVF, the enrichment ratio was not above 0.25. To ICYP belongs not above 0.25; to WQTV, not above 0.25. For RMSQ the value was not above 0.25; for MFNY, not above 0.25. To RWIF belongs not above 0.25; to GEGG, not above 0.25; to PGAT, not above 0.25. As to WPIS, the enrichment ratio was not above 0.25. To EKAT belongs not above 0.25; to VVVH, not above 0.25. To KPKV belongs not above 0.25. For FQRV the value was not above 0.25; for FTNY, not above 0.25. In the case of HYCD, the enrichment ratio is not above 0.25. To YHMT belongs not above 0.25; to MCQQ, not above 0.25; to GIVG, 10.4. On to ARVI, for which the enrichment ratio was determined as 1.58. To IWMR belongs not above 0.25; to RRAP, not above 0.25; to IKLS, not above 0.25.

For VVMS, the enrichment ratio was not above 0.25.

FNDC: the enrichment ratio is not above 0.25. To DRNQ belongs not above 0.25.

Consider YEGP, for which the enrichment ratio is not above 0.25. Turning to DRSC, the enrichment ratio stood at 0.882. For GIGD the value was not above 0.25; for NQGH, not above 0.25.

As to WEMV, the enrichment ratio is not above 0.25. For FPVT the value was 0.751; for HDQG, not above 0.25; for VPKD, not above 0.25. On to WFYY, for which the enrichment ratio is not above 0.25. To RFSN belongs 0.949; to NIVL, not above 0.25; to EMRL, not above 0.25. For QAVG the value was not above 0.25.

For SWAP, the enrichment ratio was not above 0.25. To WWPR belongs not above 0.25; to VYYA, not above 0.25. To VKNK belongs not above 0.25.

In the case of GFWL, the enrichment ratio was not above 0.25. For WDMG the value was not above 0.25; for LVPR, not above 0.25; for LMYA, not above 0.25. To RMPR belongs not above 0.25. For IHNT the value was not above 0.25. With MRNW, the enrichment ratio was not above 0.25. Regarding DGPA, the enrichment ratio is not above 0.25.

Regarding SGQE, the enrichment ratio was not above 0.25. To EPIN belongs not above 0.25; to HNNG, not above 0.25; to NPYT, not above 0.25. To GGFH belongs not above 0.25; to FEMF, not above 0.25; to VIEF, not above 0.25. For HLYP the value was not above 0.25; for MSTY, 2.56; for EPWS, not above 0.25. SKLF: the enrichment ratio worked out at 11. For DSVF the value was not above 0.25. Take NDTN: the enrichment ratio is not above 0.25.

Consider LLSD, for which the enrichment ratio was not above 0.25. To NRYW belongs not above 0.25; to WYHH, not above 0.25; to SVTM, 14.7. To KCER belongs not above 0.25; to FDYC, not above 0.25; to WQIY, not above 0.25. As for IGDN, the enrichment ratio is not above 0.25. For KTFQ the value was not above 0.25; for DERN, not above 0.25. With RYRK, the enrichment ratio is not above 0.25.

As for FKRG, the enrichment ratio is not above 0.25. To CFFA belongs not above 0.25; to HIFT, not above 0.25. To HYIK belongs not above 0.25; to WICA, 0.253.

With HQQE, the enrichment ratio was not above 0.25. To NPGQ belongs not above 0.25; to MKLV, 9.89; to FWVN, not above 0.25. To YDGH belongs not above 0.25; to NTLN, not above 0.25; to SPKA, not above 0.25. To KTWA belongs not above 0.25; to SVRY, not above 0.25; to QCYK, not above 0.25. Regarding PYFL, the enrichment ratio is not above 0.25. To YYKM belongs not above 0.25; to AMIL, 4.07.

With VGMK, the enrichment ratio was not above 0.25. For FEWC the value was not above 0.25; for KGAY, not above 0.25. For YYKP the value was not above 0.25; for ICQT, not above 0.25; for GKPQ, not above 0.25.

With VTGK, the enrichment ratio was not above 0.25. To RAVK belongs not above 0.25.

Consider PIHC, for which the enrichment ratio is not above 0.25.

Take QKPY: the enrichment ratio was not above 0.25. For KEAI the value was not above 0.25; for GESS, 5.41. Take QCRS: the enrichment ratio was not above 0.25. To PTFG belongs not above 0.25; to QDYY, not above 0.25; to KRCW, not above 0.25.

For YVHI, the enrichment ratio is not above 0.25. In the case of PWVL, the enrichment ratio is not above 0.25. For GTIH the value was not above 0.25; for DCRW, not above 0.25. To QIRN belongs not above 0.25; to GFYK, not above 0.25. For DNLS the value was not above 0.25; for TDFH, not above 0.25.

As for VMLK, the enrichment ratio was not above 0.25.

For KGLR, the enrichment ratio is not above 0.25. Take QDYV: the enrichment ratio is not above 0.25. ISRY: the enrichment ratio is not above 0.25.

Turning to YTQL, the enrichment ratio was not above 0.25. With GLNY, the enrichment ratio was not above 0.25. For VERQ the value was not above 0.25.

In the case of DIWR, the enrichment ratio was not above 0.25. For PPHD the value was not above 0.25; for FMDQ, not above 0.25. For LYWA the value was not above 0.25; for GQCL, 7.51; for NFVA, not above 0.25. To CFFQ belongs not above 0.25; to KYEG, not above 0.25; to WQHI, not above 0.25.

With TIMH, the enrichment ratio was not above 0.25. For QVYS the value was not above 0.25. For EKMC the value was not above 0.25; for VSTS, not above 0.25.

The record behind these values is a collection of fitness landscapes (doi:10.1126/science.1257360).
